# Some of the results follow.
# B1: HA-11100 (Pseudomonas aeruginosa), Q02G51_PSEAB (protein)
# chain: QFNPNEIKISQQGKTTLIDQSTQRAIINWKGFDVSADEAVRFNQPGVTSSTLNRVTAGQESVIAGRISAPGQVIIYNSNGVVFSGSAKVDVGSLITTTANISDEHFRQGKLIFDQPGNPDARIVNDGSISVAEKGLAAFVAPSVANNGVINARLGTVAMAAGNAATIDLYG
# Tests used:
# Assay in all cases: glycan array binding signal (z-score within array); higher = stronger binding
# Conditions in all cases: glycan notation: IUPAC condensed, linker removed
# [1] = molecular target: Fuc(a1-2)Gal(b1-4)[Fuc(a1-3)]GlcNAc
# Method in brief: (§1)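 Arrays were curated from the Consortium for Functional Glycomics database, 3228 in total, and kept only where the protein sequence was available. Binding is expressed as a within-array Z-score. This score was averaged across arrays of the same protein sequence at different concentrations or buffers and across linkers, and negative values can be read as non-binding.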
# [2] = molecular target: Fuc(a1-2)Gal(b1-4)[Fuc(a1-3)]GlcNAc(b1-2)Man(a1-3)[Fuc(a1-2)Gal(b1-4)[Fuc(a1-3)]GlcNAc(b1-2)Man(a1-6)]Man(b1-4)GlcNAc(b1-4)[Fuc(a1-6)]GlcNAc
# Method in brief: as §1
# [3] = molecular target: Fuc(a1-2)Gal(b1-4)[Fuc(a1-3)]GlcNAc(b1-2)[Fuc(a1-2)Gal(b1-4)[Fuc(a1-3)]GlcNAc(b1-4)]Man(a1-3)[Fuc(a1-2)Gal(b1-4)[Fuc(a1-3)]GlcNAc(b1-2)Man(a1-6)]Man(b1-4)GlcNAc(b1-4)GlcNAc
# Method in brief: as §1
# [4] = molecular target: Fuc(a1-2)Gal(b1-4)[Fuc(a1-3)]GlcNAc(b1-3)Gal(b1-4)[Fuc(a1-3)]GlcNAc
# Method in brief: as §1
# [5] = molecular target: Fuc(a1-2)Gal(b1-4)[Fuc(a1-3)]GlcNAc(b1-3)Gal(b1-4)[Fuc(a1-3)]GlcNAc(b1-3)Gal(b1-4)[Fuc(a1-3)]GlcNAc
# Method in brief: as §1
# [6] = molecular target: Fuc(a1-2)Gal(b1-4)[Fuc(a1-3)]GlcNAc(b1-3)GalNAc
# Method in brief: as §1
# [7] = molecular target: Fuc(a1-2)Gal(b1-4)[Fuc(a1-3)]GlcNAc(b1-3)[Neu5Ac(a2-6)Gal(b1-4)GlcNAc(b1-6)]Gal(b1-4)Glc
# Method in brief: as §1
# [8] = molecular target: Fuc(a1-2)Gal3S(b1-4)GlcNAc
# Method in brief: as §1
# [9] = molecular target: Fuc(a1-2)Gal6S(b1-3)GlcNAc
# Method in brief: as §1
# [10] = molecular target: Fuc(a1-2)Gal6S(b1-3)GlcNAc6S
# Method in brief: as §1
# Fuc(a1-2)Gal6S(b1-4)Glc = molecular target: Fuc(a1-2)Gal6S(b1-4)Glc
# Method in brief: as §1
# [11] = molecular target: Fuc(a1-2)Gal6S(b1-4)Glc6S
# Method in brief: as §1
# Fuc(a1-2)[Gal(a1-3)]Gal = molecular target: Fuc(a1-2)[Gal(a1-3)]Gal
# Method in brief: as §1
# [12] = molecular target: Fuc(a1-2)[Gal(a1-3)]Gal(b1-3)GalNAc
# Method in brief: as §1
# [13] = molecular target: Fuc(a1-2)[Gal(a1-3)]Gal(b1-3)GalNAc(b1-3)Gal(a1-4)Gal(b1-4)Glc
# Method in brief: as §1
# [14] = molecular target: Fuc(a1-2)[Gal(a1-3)]Gal(b1-3)GlcNAc
# Method in brief: as §1
# [15] = molecular target: Fuc(a1-2)[Gal(a1-3)]Gal(b1-3)GlcNAc(b1-2)Man(a1-3)[Fuc(a1-2)[Gal(a1-3)]Gal(b1-3)GlcNAc(b1-2)Man(a1-6)]Man(b1-4)GlcNAc(b1-4)GlcNAc
# Method in brief: as §1
# [16] = molecular target: Fuc(a1-2)[Gal(a1-3)]Gal(b1-3)GlcNAc(b1-2)Man(a1-3)[Fuc(a1-2)[Gal(a1-3)]Gal(b1-3)GlcNAc(b1-2)Man(a1-6)]Man(b1-4)GlcNAc(b1-4)[Fuc(a1-6)]GlcNAc
# Method in brief: as §1
# [17] = molecular target: Fuc(a1-2)[Gal(a1-3)]Gal(b1-3)GlcNAc(b1-3)GalNAc
# Method in brief: as §1
# [18] = molecular target: Fuc(a1-2)[Gal(a1-3)]Gal(b1-3)GlcNAc(b1-6)GalNAc
# Method in brief: as §1
# [19] = molecular target: Fuc(a1-2)[Gal(a1-3)]Gal(b1-4)Glc
# Method in brief: as §1
# [20] = molecular target: Fuc(a1-2)[Gal(a1-3)]Gal(b1-4)GlcNAc
# Method in brief: as §1
# [21] = molecular target: Fuc(a1-2)[Gal(a1-3)]Gal(b1-4)GlcNAc(b1-2)Man
# Method in brief: as §1
# [22] = molecular target: Fuc(a1-2)[Gal(a1-3)]Gal(b1-4)GlcNAc(b1-2)Man(a1-3)[Fuc(a1-2)[Gal(a1-3)]Gal(b1-4)GlcNAc(b1-2)Man(a1-6)]Man(b1-4)GlcNAc(b1-4)GlcNAc
# Method in brief: as §1
# [23] = molecular target: Fuc(a1-2)[Gal(a1-3)]Gal(b1-4)GlcNAc(b1-2)Man(a1-3)[Fuc(a1-2)[Gal(a1-3)]Gal(b1-4)GlcNAc(b1-2)Man(a1-6)]Man(b1-4)GlcNAc(b1-4)[Fuc(a1-6)]GlcNAc
# Method in brief: as §1
# [24] = molecular target: Fuc(a1-2)[Gal(a1-3)]Gal(b1-4)GlcNAc(b1-3)GalNAc
# Method in brief: as §1
# [25] = molecular target: Fuc(a1-2)[Gal(a1-3)]Gal(b1-4)GlcNAc(b1-3)[Fuc(a1-2)[Gal(a1-3)]Gal(b1-4)GlcNAc(b1-6)]GalNAc
# Method in brief: as §1
# [26] = molecular target: Fuc(a1-2)[Gal(a1-3)]Gal(b1-4)GlcNAc(b1-6)GalNAc
# Method in brief: as §1
# [27] = molecular target: Fuc(a1-2)[Gal(a1-3)]Gal(b1-4)[Fuc(a1-3)]Glc
# Method in brief: as §1
# [28] = molecular target: Fuc(a1-2)[Gal(a1-3)]Gal(b1-4)[Fuc(a1-3)]GlcNAc
# Method in brief: as §1
# [29] = molecular target: Fuc(a1-2)[Gal(a1-3)]Gal(b1-4)[Fuc(a1-3)]GlcNAc(b1-3)GalNAc
# Method in brief: as §1
# [30] = molecular target: Fuc(a1-2)[Gal(a1-4)]Gal(b1-4)GlcNAc
# Method in brief: as §1
# [31] = molecular target: Fuc(a1-2)[GalNAc(a1-3)]Gal
# Method in brief: as §1
# [32] = molecular target: Fuc(a1-2)[GalNAc(a1-3)]Gal(b1-3)GalNAc(a1-3)[Fuc(a1-2)]Gal(b1-4)GlcNAc
# Method in brief: as §1
# [33] = molecular target: Fuc(a1-2)[GalNAc(a1-3)]Gal(b1-3)GalNAc(b1-3)Gal(a1-4)Gal(b1-4)Glc
# Method in brief: as §1
# [34] = molecular target: Fuc(a1-2)[GalNAc(a1-3)]Gal(b1-3)GlcNAc
# Method in brief: as §1
# [35] = molecular target: Fuc(a1-2)[GalNAc(a1-3)]Gal(b1-3)GlcNAc(b1-2)Man(a1-3)[Fuc(a1-2)[GalNAc(a1-3)]Gal(b1-3)GlcNAc(b1-2)Man(a1-6)]Man(b1-4)GlcNAc(b1-4)GlcNAc
# Method in brief: as §1
# [36] = molecular target: Fuc(a1-2)[GalNAc(a1-3)]Gal(b1-3)GlcNAc(b1-2)Man(a1-3)[Fuc(a1-2)[GalNAc(a1-3)]Gal(b1-3)GlcNAc(b1-2)Man(a1-6)]Man(b1-4)GlcNAc(b1-4)[Fuc(a1-6)]GlcNAc
# Method in brief: as §1
binder,measurement,setting,value
B1,glycan array binding signal (z-score),[1],-0.134
same,glycan array binding signal (z-score),[2],0.05
same,glycan array binding signal (z-score),[3],0.232
same,glycan array binding signal (z-score),[4],-0.345
same,glycan array binding signal (z-score),[5],-0.73
same,glycan array binding signal (z-score),[6],-0.111
same,glycan array binding signal (z-score),[7],-0.211
same,glycan array binding signal (z-score),[8],-0.046
same,glycan array binding signal (z-score),[9],-0.359
same,glycan array binding signal (z-score),[10],-0.046
same,glycan array binding signal (z-score),Fuc(a1-2)Gal6S(b1-4)Glc,-0.493
same,glycan array binding signal (z-score),[11],-0.212
same,glycan array binding signal (z-score),Fuc(a1-2)[Gal(a1-3)]Gal,-0.32
same,glycan array binding signal (z-score),[12],-0.312
same,glycan array binding signal (z-score),[13],-0.465
same,glycan array binding signal (z-score),[14],-0.203
same,glycan array binding signal (z-score),[15],7.81
same,glycan array binding signal (z-score),[16],-0.083
same,glycan array binding signal (z-score),[17],-0.638
same,glycan array binding signal (z-score),[18],-0.435
same,glycan array binding signal (z-score),[19],-0.312
same,glycan array binding signal (z-score),[20],-0.128
same,glycan array binding signal (z-score),[21],0.173
same,glycan array binding signal (z-score),[22],-0.222
same,glycan array binding signal (z-score),[23],-0.071
same,glycan array binding signal (z-score),[24],-0.42
same,glycan array binding signal (z-score),[25],-0.436
same,glycan array binding signal (z-score),[26],-0.549
same,glycan array binding signal (z-score),[27],0.052
same,glycan array binding signal (z-score),[28],-0.244
same,glycan array binding signal (z-score),[29],-0.169
same,glycan array binding signal (z-score),[30],-0.083
same,glycan array binding signal (z-score),[31],-0.447
same,glycan array binding signal (z-score),[32],-0.463
same,glycan array binding signal (z-score),[33],0.044
same,glycan array binding signal (z-score),[34],-0.155
same,glycan array binding signal (z-score),[35],-0.171
same,glycan array binding signal (z-score),[36],-0.112
